{"source": "paper PMC4336329", "about": "(PLoS ONE, 2015)", "note": "Out of some 310,000 compounds screened, about 14,000 (4.5%) showed an effect of 50% or more. The effect is printed as a negative number. Some of the results follow.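 Also: peak tail current of the secondary pulse compared with the same well before compound.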", "data": [{"target": "human ether-à-go-go-related gene (hERG) potassium channel (human, UniProt Q12809)", "sequence (Q12809 whole entry, looked up)": "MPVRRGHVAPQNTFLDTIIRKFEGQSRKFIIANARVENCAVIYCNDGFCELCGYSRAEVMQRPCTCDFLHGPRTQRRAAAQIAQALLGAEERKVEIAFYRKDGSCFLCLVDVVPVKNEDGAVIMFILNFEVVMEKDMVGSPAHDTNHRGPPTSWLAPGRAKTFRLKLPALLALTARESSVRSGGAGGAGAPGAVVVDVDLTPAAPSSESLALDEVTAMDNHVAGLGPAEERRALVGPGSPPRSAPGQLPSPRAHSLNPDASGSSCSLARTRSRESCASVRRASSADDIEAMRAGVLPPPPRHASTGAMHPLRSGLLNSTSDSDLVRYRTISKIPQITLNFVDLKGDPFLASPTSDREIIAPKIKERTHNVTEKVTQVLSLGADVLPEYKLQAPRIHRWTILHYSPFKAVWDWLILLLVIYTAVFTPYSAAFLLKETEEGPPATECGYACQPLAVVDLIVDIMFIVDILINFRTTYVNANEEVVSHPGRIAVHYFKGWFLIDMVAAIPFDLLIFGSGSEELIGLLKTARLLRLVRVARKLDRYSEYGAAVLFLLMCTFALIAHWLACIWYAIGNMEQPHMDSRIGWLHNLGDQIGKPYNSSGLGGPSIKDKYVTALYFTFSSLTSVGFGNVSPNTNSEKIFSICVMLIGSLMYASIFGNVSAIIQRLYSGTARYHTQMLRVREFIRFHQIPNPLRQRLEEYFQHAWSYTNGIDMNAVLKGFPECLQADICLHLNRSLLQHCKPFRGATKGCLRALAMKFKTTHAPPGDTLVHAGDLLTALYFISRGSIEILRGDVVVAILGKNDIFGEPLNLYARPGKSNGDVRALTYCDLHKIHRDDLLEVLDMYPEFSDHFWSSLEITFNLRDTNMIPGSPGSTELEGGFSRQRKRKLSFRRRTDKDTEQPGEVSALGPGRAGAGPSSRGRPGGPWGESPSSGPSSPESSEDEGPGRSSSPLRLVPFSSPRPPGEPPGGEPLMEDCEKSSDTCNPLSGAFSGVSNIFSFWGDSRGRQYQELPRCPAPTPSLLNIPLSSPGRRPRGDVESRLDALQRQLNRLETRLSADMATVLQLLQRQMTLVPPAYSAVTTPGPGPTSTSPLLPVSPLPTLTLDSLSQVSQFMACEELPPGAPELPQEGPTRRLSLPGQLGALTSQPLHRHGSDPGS", "assay": "primary screen, population patch clamp on CHO cells stably expressing hERG", "units": {"hERG current change (%, negative = inhibition) at 10uM": "%"}, "values": [{"smiles": "CCOc1cccc(C(=O)Nc2cc(-c3nn4c(C)nnc4s3)ccc2C)c1", "hERG current change (%, negative = inhibition) at 10uM": -21.2}, {"smiles": "CC(C)CCCN1C(Nc2ccccc2)=NC[C@@H]1C", "hERG current change (%, negative = inhibition) at 10uM": -11.4}, {"smiles": "CCOc1cc(CNc2cccc3ccccc23)cc(Br)c1OCC(=O)NC(C)(C)C", "hERG current change (%, negative = inhibition) at 10uM": -7.17}, {"smiles": "O=C(CN1C(=O)S/C(=C/c2ccncc2)C1=O)N1CCOCC1", "hERG current change (%, negative = inhibition) at 10uM": -33.7}, {"smiles": "C=Cc1ccc(Cn2nc(-c3ccccc3)ccc2=O)cc1", "hERG current change (%, negative = inhibition) at 10uM": -2.93}, {"smiles": "CC(C)CC(=O)Nc1cc2c3c(c1)C(C)C(=O)N3CCC2", "note": "(centres unmarked)", "hERG current change (%, negative = inhibition) at 10uM": 17.5}, {"smiles": "COc1ccc(NC(=O)CC2C(=O)N(c3cccc(OC)c3)C(=O)N2C2CCCCC2)cc1", "note": "(centres unmarked)", "hERG current change (%, negative = inhibition) at 10uM": 13.4}, {"smiles": "COc1ccc(CCC(=O)NNC(=O)c2ccc(F)cc2)cc1", "hERG current change (%, negative = inhibition) at 10uM": 6.02}, {"smiles": "O=C(CSC1CC(=O)N(CC(c2ccccc2)c2ccccc2)C1=O)Nc1ccc(Cl)cc1", "note": "(centres unmarked)", "hERG current change (%, negative = inhibition) at 10uM": -5.42}, {"smiles": "COC(=O)c1sccc1NC(=O)c1ccc(OC)cc1", "hERG current change (%, negative = inhibition) at 10uM": 17.8}, {"smiles": "O=C(CNc1cccc([N+](=O)[O-])c1)N/N=C/c1ccc([N+](=O)[O-])o1", "hERG current change (%, negative = inhibition) at 10uM": -36}, {"smiles": "CCOc1ccc(NC(=O)CSc2nnc(Cn3cnc([N+](=O)[O-])n3)n2CC)cc1", "hERG current change (%, negative = inhibition) at 10uM": 12.4}, {"smiles": "CN(C)S(=O)(=O)c1cccc(NC(=O)Cc2ccc(Cl)cc2)c1", "hERG current change (%, negative = inhibition) at 10uM": -17.3}, {"smiles": "O=C(NC(=S)Nc1cccc(O)c1)c1cncc(Br)c1", "hERG current change (%, negative = inhibition) at 10uM": 11.6}, {"smiles": "O=C(COc1ccc2ccccc2c1)NNC(=O)Cc1cccc2ccccc12", "hERG current change (%, negative = inhibition) at 10uM": 6.39}, {"smiles": "O=C(NCCc1ccc(Cl)cc1)c1ccc2c(c1)OCO2", "hERG current change (%, negative = inhibition) at 10uM": -2.49}, {"smiles": "CC(OC(=O)c1ccc(NC(=O)CC#N)cc1)C(=O)NCCC1=CCCCC1", "note": "(centres unmarked)", "hERG current change (%, negative = inhibition) at 10uM": -0.851}, {"smiles": "CN(C)CCCn1cnc2c1c(=O)[nH]c(=O)n2Cc1ccccc1.Cl", "hERG current change (%, negative = inhibition) at 10uM": 13.9}, {"smiles": "O=C(O)CC1(CC(=O)Nc2ccc(F)c(Cl)c2)CCCCC1", "hERG current change (%, negative = inhibition) at 10uM": 17.9}, {"smiles": "COc1ccc(OCCCC(=O)ON=C(N)c2ccccc2Cl)cc1", "hERG current change (%, negative = inhibition) at 10uM": 8.61}, {"smiles": "COCCNC(=O)c1onc(CSc2cccc(OC)c2)c1C(=O)NCCOC", "hERG current change (%, negative = inhibition) at 10uM": -7.98}, {"smiles": "O=C(c1ccc(Cl)c(Cl)c1)N1CCN(c2ccccn2)CC1", "hERG current change (%, negative = inhibition) at 10uM": -15.1}, {"smiles": "O=C(O)c1nn(-c2ccccc2)nc1-c1nn(-c2ccccc2)nc1C(=O)O", "hERG current change (%, negative = inhibition) at 10uM": 19.7}, {"smiles": "COc1ccc(S(=O)(=O)Nc2ccccc2C(=O)NCc2cccnc2)cc1", "hERG current change (%, negative = inhibition) at 10uM": 8.08}, {"smiles": "CCc1ccc(N(C(=O)CNC(=O)c2ccco2)C(C(=O)NC2CCCC2)c2cccnc2)cc1", "note": "(centres unmarked)", "hERG current change (%, negative = inhibition) at 10uM": 0.178}, {"smiles": "COc1cc2c(cc1NC(=O)COC(=O)[C@@H](NC(=O)c1ccccc1F)C(C)C)oc1ccccc12", "hERG current change (%, negative = inhibition) at 10uM": 9.13}, {"smiles": "CC(=O)c1cc2c(cc1NS(=O)(=O)c1ccc(C)cc1)OCCO2", "hERG current change (%, negative = inhibition) at 10uM": 4.34}, {"smiles": "CC(C)CC(NC(=O)c1ccc(Cl)cc1)C(=O)O", "note": "(centres unmarked)", "hERG current change (%, negative = inhibition) at 10uM": 8.81}, {"smiles": "COc1ccc(OCCCc2c(C)n[nH]c2C)cc1", "hERG current change (%, negative = inhibition) at 10uM": -3.61}, {"smiles": "CCCCCOC(=O)c1ccc(NC(=O)c2cccc(NC(=O)c3ccccc3C(=O)O)c2)cc1", "hERG current change (%, negative = inhibition) at 10uM": 24.8}, {"smiles": "CCN(CC)c1ccc(NC(=O)CCCCCN2C(=O)c3ccccc3C2=O)cc1", "hERG current change (%, negative = inhibition) at 10uM": -25}, {"smiles": "COc1ccccc1-n1nnnc1SCC(=O)NC1CC1", "hERG current change (%, negative = inhibition) at 10uM": -9.16}, {"smiles": "COC(=O)C1CN(C(=O)COc2ccc(C)cc2)c2ccccc2O1", "note": "(centres unmarked)", "hERG current change (%, negative = inhibition) at 10uM": -11.9}, {"smiles": "S=C1NC2(CCCCC2)NC12CCCCC2", "hERG current change (%, negative = inhibition) at 10uM": 18.4}, {"smiles": "CCOC(=O)c1ccc([N+](=O)[O-])cc1NC(C)=O", "hERG current change (%, negative = inhibition) at 10uM": 3.85}, {"smiles": "CCN(CC)C(=O)CSc1nc(-c2ccccc2)ccc1C#N", "hERG current change (%, negative = inhibition) at 10uM": -8.25}, {"smiles": "N#CC(c1nc2ccccc2nc1OCCO)S(=O)(=O)c1ccccc1", "note": "(centres unmarked)", "hERG current change (%, negative = inhibition) at 10uM": 12.6}, {"smiles": "Cc1cccc(CN2CCCC(C(=O)c3cccc(OC(C)C)c3)C2)n1", "note": "(centres unmarked)", "hERG current change (%, negative = inhibition) at 10uM": -40}, {"smiles": "CCN(CC)S(=O)(=O)c1cccc(-c2nnc(SC(C)C(=O)NCCC3=CCCCC3)o2)c1", "note": "(centres unmarked)", "hERG current change (%, negative = inhibition) at 10uM": -12.2}, {"smiles": "O=C(CCCn1nnc(-c2cccnc2)n1)c1ccc(F)cc1", "hERG current change (%, negative = inhibition) at 10uM": -27.2}, {"smiles": "CN(C)C1(CNC(=O)c2ccc(Cl)c(S(=O)(=O)NCc3ccco3)c2)CCCCC1", "hERG current change (%, negative = inhibition) at 10uM": -37.3}, {"smiles": "CCn1cc([N+](=O)[O-])c(C(=O)N2CCN(C(=O)c3ccco3)CC2)n1", "hERG current change (%, negative = inhibition) at 10uM": 7.17}, {"smiles": "COc1ccc(CC(=O)N2CCN(S(=O)(=O)c3cccs3)CC2)cc1OC", "hERG current change (%, negative = inhibition) at 10uM": -3.99}, {"smiles": "C=CCn1c(SCC(=O)N(CCC)C2CCS(=O)(=O)C2)nnc1-c1ccccc1OC", "note": "(centres unmarked)", "hERG current change (%, negative = inhibition) at 10uM": -5.39}]}]}
